The values below come from the supplement of paper PMC10681739.

± gives the standard deviation of the averaged measurements. In all, about 4,100 sequences were measured (“arbitrary fluorescence units”: median about 780, highest 2% from about 22,000 on). Some of the results follow.

For the experiment, the target named is T1, ETS1 (UniProt P14921).
T1 sequence: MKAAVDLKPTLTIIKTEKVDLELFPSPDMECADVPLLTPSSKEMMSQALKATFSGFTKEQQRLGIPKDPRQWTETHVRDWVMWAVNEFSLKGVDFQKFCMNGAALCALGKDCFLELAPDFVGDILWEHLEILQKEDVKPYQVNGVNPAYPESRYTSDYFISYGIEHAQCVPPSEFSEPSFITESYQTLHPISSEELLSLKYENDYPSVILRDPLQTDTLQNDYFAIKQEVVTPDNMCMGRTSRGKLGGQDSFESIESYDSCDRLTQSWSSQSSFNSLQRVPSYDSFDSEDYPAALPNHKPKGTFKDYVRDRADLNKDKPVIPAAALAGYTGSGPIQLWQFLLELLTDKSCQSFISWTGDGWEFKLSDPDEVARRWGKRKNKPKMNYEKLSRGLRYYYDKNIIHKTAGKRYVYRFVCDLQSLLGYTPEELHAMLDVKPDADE
As to the kind of experiment: ETS1 binding intensity (PBM fluorescence), ETS1 alone (arbitrary fluorescence units); higher = stronger binding. The following applies: ETS1 concentration 1 nM; RUNX1 concentration 0 nM. The gist of the method: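 Double-stranded Agilent 4 × 180k arrays held 36-bp genomic probes whose RUNX1 partner site was mutated, and these were incubated with 1 nM full-length recombinant human ETS1 in the absence of RUNX1 under standard PBM protocols. Bound protein was labelled with anti-ETS1 antibody (Cell Signaling Technology 14069) plus an Alexa488-conjugated secondary and read on a GenePix 4400A, with four spots printed per sequence. Binding level is reported as raw spot fluorescence intensity summarised over replicate spots.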
TTGAGCGCCGTCTCGCCTCCGCTTCCTCCTCACTCC showed an ETS1 binding intensity of 433. Next, GCTGCAAGGCGGAAGCAGCGCGCTCGGACGGGCATG: 1590; AACACACACGTGGATTCTCACCACTTCCTGGATGTC: 1540.

The sequence AAATCAAAACCCCAATCAGATACCACTTCCTGCCCA yielded an ETS1 binding intensity of 2350. In the case of ATAGTCACCGTTCCGGCCCTCCTCCACTGCACTTCT, the ETS1 binding intensity is 489. Under CACGTGCGCGGGAGGGAAGCAGGAAGTGACAGCGGG stands 3100; under GGGGCTGTGCTTCCGGCTGTTTGTGCGATTTTGTGC, 6150; under CCGGTCGGGGCTGCAGCCGCTTCCGGAGCCGCGGGC, 3060. Under CCTTGCTACAGGATGTTTTGACAACGAGCCCAGGAG stands 1240; under CTGAGCCGTAGACATGAAACCATGGCTTCCTTCACA, 375; under CGGCGGCCGCTGAGGGAGCCACAGGAAGTGAAGAGC, 2130. Under CCGACTGCAGGGGCGGGGCCGGAGCCAGGAAGCGCT stands 518; under AAATGTAGCCCGGAACCAAGTGTGCGCTGACGACTC, 413; under TCTGTAGGTTTACCTGTTCTGGATATTTCCTGTAAA, 980. Sequence TTTCATATTTGTAGTTTTGGTGTTTCCTCTTACACA yielded an ETS1 binding intensity of 865.

On to GTGAGTCACTTCCTGACCATGTAGGTTTTTGGTACG, for which the ETS1 binding intensity came to 4020. Next, CCTGGTCCGGAAGCGCTGTCCCCGCCTCCCGAATAG: 3270. Under TGAAACTACAATTAAAAGCTCAGACATCCTCCCCTC stands 349; under AGCTGGGGTGGGCTCCACCCAGTTTGAACTTCCTGG, 595. Next, GCCCTGCAGGCCCCGTTCCCGCCATTCCTTCCTGCC: 438; TCACTGTCGTATCTGGAAGCAAAAGGAAATGTGCTC: 470; TATGGGGCCGGAAGCCATTCACCCCAAACACTGTGT: 4230.

With TCTCAAAGGAAGGGAAAGCTTGGCCTGCAGCACCCA, the ETS1 binding intensity worked out at 361. Next, GGCCTCGCGGCGTCTCTGCTGCTTCCGCCTTCCCGG: 854. Next, TCCGCCCGCGGATGCTGAGAACAGCAGCTGCACAAG: 396; CTTAAACCGGCCACGACAGCTCACCCATCCTGTCGG: 438; TGATTCCTGTGCCTACAAGGCTCCCGGAAGTGTCAG: 2190. Next, TACAGCCAGGAAATGGGGAGGGTGCTGCAGGCGGCA: 2100; CGACCCGGGGATGTGAGCGGAGTCTACGGCTGCGCT: 323; CGGCAGCTGCACCGAAGGGACATCTTCCGCCAGAGC: 384. For AAAGGGCGGGGAAACGGAATTGCCGCGAGCTCTCCG, the ETS1 binding intensity is 470.

The sequence GGAAAAGGAAGTGGCTTTGACTCGCGGGCAGGGAGA yielded an ETS1 binding intensity of 2310. Sequence CTAACCCTTCTCTTCCTGCAAAAACCCCAACAAAGG returned an ETS1 binding intensity of 1180 ± 270. Next, ACGTGCTCAGATCCCCAACCCTTCCCGGAAAGGGGA: 387.

For the sequence TAGGTCACCTCCGCGACACAGCAACGGAAGTAGGGT, the ETS1 binding intensity is 1110.

TCCCCTCTACAGCCCCAAGAATGGGAAATGGCTTGT had an ETS1 binding intensity of 402.

AGCTCCAGGAAGAGGGCCTGAACACCAAACGGGGGA: the ETS1 binding intensity was found to be 481.

In turn, GACTCTTCCGGCCCAGAGCTTTCGGAGTGCGTTTGC yielded an ETS1 binding intensity of 8040. Under GCCTGCCTGCAGGCGAGTGGAGTCAGGATGAGTGTC stands 313; under TCTCTTCCTGTGATGGAAATACATTGGGGTTCGCGG, 6720.

Turning to CACCTCTCAGGAAGGACCGAGCCCGAAAGTCCCTCA, the ETS1 binding intensity was 505.

In turn, AAGAGTCGCGCTTTTCCACCAGGAAGTTGTCCAGTC yielded an ETS1 binding intensity of 612. In the case of TCGCCCACTTCCCCACCTCTCAAAAGACAACAGGCA, the ETS1 binding intensity amounted to 1100.

GACAAGCTACAGGTGAGTCAGCATGCCACTTCCCGA returned an ETS1 binding intensity of 400. For the sequence AGCTGCAGGGTGTGCTCAGGAGAGGAAGCGAGGCCT, the ETS1 binding intensity stood at 407. Under TGCTCTGGGGACAGCCCAGGTGCAGGAAGGGGCCAG stands 312. Under AGGGAAGAGGGAAGTCGTGGTGTTCGCGAGGGAGCC stands 482. Next, CAAAATGCGCGATCTGGAGAGGAAACAAAGCAGTGG: 393; AGGTTCCTGAGGTGGCCGCGTGCTGGTTCCGTTAGC: 398; CTGTCCACATAAGGAAGTTGGGACCCCAAGGTCTTT: 557 ± 52. In turn, TTGCACTCTGAGGGGACGGGAGAAGGAAGGAAAAAT registered an ETS1 binding intensity of 542. Under CCCGGACTGCAGGCCGGACTACACTTCCCGTCGGCC stands 810.

Take CCTGCTGTGACTTCGGCTGTTTTCCTGGCCTGTGAG: the ETS1 binding intensity came out at 387. Under GCCGCCGTAGATTCGACACAAAACCCGGAAGGACCC stands 530; under TAGCCACTAACCGGAAACGTTAAACTACAGCTCCGT, 13000; under GAGCGGAAACCCGAGAGTCAGTTCAACGACAGCCAC, 1290.

For the sequence GCCCCGGTGGATTTGACCTCCCGCGAACTTCCCTTT, the ETS1 binding intensity is 364. Under CTGTCCGCTACATCCGGGACCTGGGGGACCGCCGAT stands 10800; under GTGCTGTGACCCCAACGTACACAGCAGGAAGGAAGG, 463; under AGCCACGGTAGCAGGGCGCAGGCCGGAACCTTTCTT, 347. Under TAAACTACGTTTCCCAGAAGGCTGAGGGATTGCGTC stands 339. Next, AGCGTTGTCTTCCGGCCTCAATCACTCAGCGACCGG: 7020. The sequence AACAACAAACATCCCAGGAACCCCAGTGGGACAGGA registered an ETS1 binding intensity of 424. Under ACAGTATTTTGGTGAATCATTTCCTTCCAAGGCTCA stands 703; under TCCAGCGTTAATAATCACACACACTTCCTCTTAATC, 1140.

Turning to ACCTCCGCTGAGCACCCTGCAGGCGGAAGAACGGCC, the ETS1 binding intensity stood at 472.

CTCTGTCAGGAAAATACACTTGGATGAGGTGACAGA yielded an ETS1 binding intensity of 317.

Consider CAAGGAGGCTTCCTGCGTGGGGCCGAAGAGCGAGTC, for which the ETS1 binding intensity was found to be 2930.

CCCCTTCATCCGCCTCTCTCTCGCCGCGCCGCTCCC displayed an ETS1 binding intensity of 1250. Next, CTCCCACATCCGAAGCGGCGCAACTCACAACAGCCT: 1140; GCTTTCTCTGGTGACTGGGCGCTTCCTGTTTTCTCA: 2540.

With TTGCTTTTTAAGGTTTGTATTTCCTGTGTGAGCTGT, the ETS1 binding intensity was determined as 2880.

On to TGGGGTGGGGTGGGAAGTGCCAGCGGCCTGGGTGTC, for which the ETS1 binding intensity worked out at 576. Under CTGCGTCCCGGAAGGAGCGAGCTTACGGAGCGTGAA stands 3080; under CGTGTCCACGGGGACCGAAAGTGGCGTCCGGCGCAA, 354. Next, CTCCCGGACGCTAACGTCTGGCAAATCACATTGCCC: 453. AGCGGGGAGGAAGATCAGAAGAAAACCCCACGAGTT registered an ETS1 binding intensity of 384. Consider CAGCTGCGGAACTGCGCGATTGGGGTTCCCGCCGTA, for which the ETS1 binding intensity came out at 608. Next, AGTCTCACGGTGCTTGAACCAGCGGAAGTGACGTCG: 1730. Next, GCAGCTTAGGAAGGGGCGGCTGAGCACACTGGTCTA: 458; CGGGAGATTCCGGATCCAGGATCTGCTGCAGGCCCG: 401; GCGCTTCCTGCCAGCTTGGAGGATAGCCGCCTACCG: 14500. Next, AGTTTCTTCTTTCCGGTGGGTTTGGGGTCTTGCTGA: 7130; ACCACACTTCCCAAGGGTCTCTGGGGCTGCGCGGAG: 357; TGGTGCTTTGGTGCTTTGGTGGCAGCAGGAAGGTAA: 497.

On to GGGTCACCCAGGGGAAGTTTGAACCCCAGCCATCAG, for which the ETS1 binding intensity came to 500. Take AGGTTCCGGGGCTACACCCAGCCCAGGCCGTAGGCA: the ETS1 binding intensity amounted to 1980. Under AAAGCTCCGCGCGGGTCCCACCCCGGAACTGCCTCT stands 378; under CCTAAGTGACAGGATGGTCTGGCGACGACATTGCCC, 479. Under GGACATCAGATGAGGTAGAGCAGGAAGAGGCGCTGT stands 533; under GCTCCCCTGACAACACCAGTTCCTCAGGAAGCCTCT, 335; under TCCAGGAAGGGGCAGGGGCCTGCTTGTAGGTTTAAA, 539. Next, AACTGGGGTGGGCCCCGCCCAGTTCGAACTTCCCTG: 440.

CTCCTCCCCCACTTCCTATTTTTACAGCAGTTGCAC returned an ETS1 binding intensity of 2630. Under CCGAGACACCTCGGGCGAGCGCAGGATGGGGTTGTC stands 352; under AGTGCTGGGCTGAGGGCCGGGGAGGAAGGCGGCTCG, 376; under GTTCTCCACATCCTGTTCCGTAGCTGGGGTGCACCG, 15600.

In the case of TTGGTTTCAGTGGATTTTGGCCAGCTTCCTTACCAG, the ETS1 binding intensity was 414.

In turn, TGGGCAGGAAGTGGTATCTGATTGGGGTTTTGATTT showed an ETS1 binding intensity of 4560. GGCTGCAGGAAGTGGGAAGGTGTAGCTTTGAGTCTC gave an ETS1 binding intensity of 2810.

Consider TGCTTCCCTTCCGTTCCGACAGCGAAAAGCGCTGCC, for which the ETS1 binding intensity came to 5370. CTCCACTCGCGGATTCGTGCCTCCCTTCCGTTCCGA: the ETS1 binding intensity came out at 492. Under CCCCACGCCGTGTCGGTAACGCGGAAGCCTGTGTCC stands 384; under TTGCATGCTGGGATGTGTAGTCCTGGCCGCTGTGCT, 356.

In turn, GGAGCGGCGCGTTACTACTGGGGAAGTCGGCGGCTG returned an ETS1 binding intensity of 365. Under TCTTTGGGGTGGAGGTGGCAGGTCTTTCTTCCGCTG stands 580; under CTCCCCCCAGGGGGCCGCGCTTTATACATCCGGACC, 750. Under GCGCAAGCAGGAAGCGTTTGCAGTGATCCCGGCGAC stands 1620; under CCGGGAAGGCGGAAGCAGCAGAGACGCCGCGAGGCC, 2220. In turn, TGCGCCTGCAGCCTCCAGGCATCGCGTCCGGCTGGA gave an ETS1 binding intensity of 435.

CACTTCCGGGTCGTCAGCTCAGTTCTGCTGTTTCTG displayed an ETS1 binding intensity of 26000. Next, GCCTGGTACCAATAAAAAGATCAACACCGGAAATAA: 4780; GCTTACGTCACGTCCGGCGCCTGGGGCCCACCCCTC: 3150; CCGTGGAAGGAAACGCTGCCAACCCCAACAGAAATG: 681. Under ACGTGATCGCGTGGGCGCAGTCCCAGACAGGAAACG stands 851; under GTGACCCTGAGGGCCAGTCACTTCCTCTGAGCCTCA, 1450; under GCCTGCTGTTTGGGTGCTGTGACCGTCCGGGGGCGG, 539. For GAGCTGCAAGTCACAAAGACCGGAAGTGCGCGTACG, the ETS1 binding intensity amounted to 26000. Under TCTGGATTTCCTGTGGGGCTCTCCCCCAAGCAGTAC stands 12200.

As for GGCCGGGGACGGAAGGCGGGCCTGCAGCAGATCCTG, the ETS1 binding intensity amounted to 482. Under ACCCTTCCTGGAGCATTGTCGCAGCAACTACAACAG stands 1800.

As to TGCTCGGGTGGACACCGCTGCAGGAAGCTCGATAGC, the ETS1 binding intensity was 445. Next, TCAGCCTGTAGTTTCTGAAGACTTCCTCGAAGTCAT: 415; AACCCCTTGCACCGTGGACACAGCTTCCTCTTCCCC: 482; TCCAGGATGTGGGATGCCGTGCTGTACCTCATGTCA: 1020.
